Some of the results follow.

In assay [1] the test system is HSkMC (human skeletal muscle cells). The experiment in a line: cytotoxicity call (relative viability < 0.9). The settings on record: 10 µM.
The subject of assay [2] is HepG2. The experiment in a line: cytotoxicity call (relative viability < 0.9). The note with it: 10 µM.
Assay [3] has as its system S. aureus RN4220. Briefly: growth inhibition call (relative growth <= 0.2). The note with it: 50 µM.

With `CCCCCCOc1cccc(N)c1`, the cytotoxicity call in assay [1] and in assay [2] was “inactive” throughout. In assay [3], the growth inhibition call was “inactive”.
On to `NCC[C@H]1CC[C@@H](NC(=O)Nc2ccc(F)cc2)[C@H](CO)O1`, for which the cytotoxicity call in assay [1] and in assay [2] was “inactive” throughout. Besides, in assay [3], the growth inhibition call was “inactive”.
On to `CC(C)NC(=O)Nc1ccc2c(c1)C(=O)N([C@H](C)CO)C[C@@H](C)[C@H](CN(C)S(=O)(=O)c1cn(C)cn1)OCCCC[C@H](C)O2`, for which the cytotoxicity call in assay [1] and in assay [2] was “inactive” throughout. Besides, the growth inhibition call in assay [3] is “inactive”.
On to `COc1ccc(NC(=O)N(C)C[C@@H]2OCc3ccccc3-c3c(n(C)c4ccccc34)C(=O)N([C@H](C)CO)C[C@@H]2C)c(OC)c1`, for which the cytotoxicity call in assay [1] and in assay [2] was “inactive” each time. The growth inhibition call in assay [3] is “inactive”.
As for `C[C@@H]1CCCCO[C@@H](CN(C)CC2CCCCC2)[C@@H](C)CN([C@H](C)CO)C(=O)c2cc(NS(=O)(=O)c3ccc(Cl)cc3)ccc2O1`, the cytotoxicity call in assay [1] and in assay [2] was “inactive” each time. In addition, the growth inhibition call in assay [3] is “inactive”.
For the compound `C[C@H](CO)N1C[C@H](C)[C@H](CN(C)S(=O)(=O)c2cn(C)cn2)Oc2c(NC(=O)Nc3ccc4c(c3)OCO4)cccc2C1=O`, the cytotoxicity call in assay [1] and in assay [2] was “inactive” in each case. Moreover, in assay [3], the growth inhibition call is “inactive”.
For `C[C@@H]1CCCCO[C@@H](CN(C)S(=O)(=O)c2ccc(Cl)cc2)[C@H](C)CN([C@@H](C)CO)C(=O)c2cc(NS(=O)(=O)c3ccccc3)ccc2O1`, the cytotoxicity call in assay [1] and in assay [2] was “inactive” throughout. Moreover, the growth inhibition call in assay [3] was “inactive”.
As to `Cc1noc(C)c1NC(=O)Nc1ccc2c(c1)C(=O)N([C@H](C)CO)C[C@H](C)[C@H](CN(C)S(=O)(=O)c1cccs1)OCCCC[C@H](C)O2`, the cytotoxicity call in assay [1] and in assay [2] was “inactive” throughout. Moreover, the growth inhibition call in assay [3] was “inactive”.
Regarding `COc1ccc(S(=O)(=O)Nc2ccc3c(c2)C(=O)N([C@@H](C)CO)C[C@H](C)[C@@H](CN(C)C(=O)Nc2c(C)noc2C)O3)cc1`, the cytotoxicity call in assay [1] and in assay [2] was “inactive” each time. Besides, the growth inhibition call in assay [3] is “inactive”.
As for `Clc1cccn2nnnc12`, the cytotoxicity call in assay [1] and in assay [2] was “inactive” in each case. The growth inhibition call in assay [3] was “inactive”.
`COCC(=O)Nc1ccc2c(c1)OC[C@@H](C)N(C(=O)c1ccccc1F)C[C@@H](C)[C@@H](OC)CN(C)C2=O`: the cytotoxicity call in assay [1] and in assay [2] was “inactive” in each case. For the same compound, in assay [3], the growth inhibition call is “inactive”.
Regarding `CCCNC(=O)N[C@H]1C=C[C@@H](CC(=O)N2CCN(C)CC2)O[C@@H]1CO`, the cytotoxicity call in assay [1] and in assay [2] was “inactive” in each case. In assay [3], the growth inhibition call was “inactive”.
Take `C[C@@H]1CN([C@H](C)CO)C(=O)c2cccc(NS(C)(=O)=O)c2O[C@H]1CN(C)S(=O)(=O)c1ccc(Cl)cc1`: the cytotoxicity call in assay [1] and in assay [2] was “inactive” each time. The growth inhibition call in assay [3] was “inactive”.
`C[C@@H]1CCCCO[C@H](CN(C)C)[C@H](C)CN([C@H](C)CO)C(=O)c2cc(NC(=O)Nc3cccc4ccccc34)ccc2O1`: the cytotoxicity call in assay [1] and in assay [2] was “inactive” in each case. The growth inhibition call in assay [3] is “inactive”.
As to `CN(C)CCCNC(=O)C[C@H]1CC[C@H]2[C@H](COc3ccc(NC(=O)NC4CCCC4)cc3C(=O)N2C)O1`, the cytotoxicity call in assay [1] and in assay [2] was “inactive” throughout. The growth inhibition call in assay [3] is “inactive”.
Take `CCCN(C)C[C@@H]1Oc2cc(C#Cc3ccc(OC)cc3)ccc2S(=O)(=O)N([C@@H](C)CO)C[C@@H]1C`: the cytotoxicity call in assay [1] and in assay [2] was “inactive” in each case. The growth inhibition call in assay [3] is “inactive”.
As for `C[C@@H]1CCCCO[C@@H](CN(C)CC2CCCCC2)[C@@H](C)CN([C@H](C)CO)C(=O)c2cc(N(C)C)ccc2O1`, the cytotoxicity call in assay [1] and in assay [2] was “inactive” in each case. Moreover, the growth inhibition call in assay [3] is “inactive”.
With `COc1ccc(S(=O)(=O)Nc2ccc3c(c2)C(=O)N([C@H](C)CO)C[C@@H](C)[C@@H](CN(C)C(=O)Nc2c(C)noc2C)O3)cc1`, the cytotoxicity call in assay [1] and in assay [2] was “inactive” throughout. Also, in assay [3], the growth inhibition call is “inactive”.
As to `OC[C@@H](O)[C@@H](O)[C@H](O)[C@H](O)CO`, the cytotoxicity call in assay [1] and in assay [2] was “inactive” throughout. Besides, in assay [3], the growth inhibition call is “inactive”.
Regarding `C[C@H]1CN([C@@H](C)CO)C(=O)c2cc(NS(=O)(=O)c3cn(C)cn3)ccc2O[C@@H]1CN(C)Cc1ccc(C(=O)O)cc1`, the cytotoxicity call in assay [1] and in assay [2] was “inactive” each time. In assay [3], the growth inhibition call was “inactive”.
As for `COc1ccc(C(=O)Nc2cccc(CN3C(=O)[C@@]4(O[C@@H](CC(=O)N(CCO)Cc5ccccc5)[C@H]([Si](C)(C)c5ccc(OC)cc5)[C@H]4C)c4ccccc43)c2)cc1`, the cytotoxicity call in assay [1] is “inactive”. In assay [2], the cytotoxicity call was “active”. Moreover, the growth inhibition call in assay [3] was “inactive”.
For the compound `COCC(=O)Nc1ccc2c(c1)OC[C@@H](C)N(Cc1ccccc1OC)C[C@@H](C)[C@H](OC)CN(C)C2=O`, the cytotoxicity call in assay [1] and in assay [2] was “inactive” throughout. The growth inhibition call in assay [3] is “inactive”.
As for `C[C@@H]1CN([C@@H](C)CO)C(=O)Cc2cc(NS(=O)(=O)c3ccc(Cl)cc3)ccc2O[C@H]1CN(C)Cc1ccc(C(=O)Nc2ccccc2N)cc1`, the cytotoxicity call in assay [1] and in assay [2] was “inactive” in each case. Moreover, in assay [3], the growth inhibition call is “inactive”.
As for `Cc1ccc(S(=O)(=O)Nc2cccc3c2O[C@@H](CN(C)Cc2ccc(Oc4ccccc4)cc2)[C@H](C)CN([C@H](C)CO)C3=O)cc1`, the cytotoxicity call in assay [1] and in assay [2] was “inactive” each time. The growth inhibition call in assay [3] is “inactive”.
On to `Cl.Nc1ccc(N=Nc2ccccc2)c(N)n1`, for which the cytotoxicity call in assay [1] and in assay [2] was “inactive” in each case. Moreover, the growth inhibition call in assay [3] was “inactive”.
For the compound `C[Si](C)(C)C#CC(=O)NO`, the cytotoxicity call in assay [1] and in assay [2] was “inactive” each time. Moreover, the growth inhibition call in assay [3] was “inactive”.
With `Cc1cc(C(=O)Nc2cccc3c2O[C@@H](CN(C)Cc2ccc(Oc4ccccc4)cc2)[C@@H](C)CN([C@H](C)CO)C3=O)n(C)n1`, the cytotoxicity call in assay [1] and in assay [2] was “inactive” each time. Also, in assay [3], the growth inhibition call was “inactive”.
